Source: the supplement of paper PMC10338343
± gives the standard deviation. The entries are a selection whose mix differs from that of the whole data set.

These sequences were tested on MIWI (PIWIL1) piRISC loaded with L1MC piRNA (30 nt) (assay: pre-steady-state target cleavage rate (min^-1); MIWI and MILI are mouse PIWI proteins and EfPiwi is from a freshwater sponge; tags in brackets are library labels; higher = faster piRNA-guided slicing of the target). Conditions: guide: L1MC piRNA 5'p-UAACUAAAUACUAUGCAAGCUGUAGGUCCU; auxiliary factor: 500 nM mouse GTSF1.
Summary of the method: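 A transcribed, DNA-blocked target RNA library […] was incubated at 33 °C for 0–8 or 0–960 min with 1 nM active affinity-purified piRISC carrying one synthetic guide, in HEPES–potassium acetate buffer with or without 500 nM GTSF1 partner protein. Uncleaved targets were then sequenced and normalised to depth and to weakly complementary targets. Data from three trials were pooled, with k3 capped at 0.0001 min^-1, and a burst-and-steady-state fit yielded the pre-steady-state cleavage rate.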
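Note: 1 nM active piRISC with 0.1 nM target library at 33 °C single turnover.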

Row | Sequence | pre-steady-state target cleavage rate
1 | UCCUGCUACACCUUCCAUAGUAUUUAGUUA | 0.0288 ± 0.014
2 | UCCUGGAACAGCAUCCAUAGUAUUUAGUUA | 0.0928 ± 0.018
3 | UGCACCUACAGCUUCCAUAGUAUUUAGUUA | 0.177 ± 0.061
4 | AGGACCUACUCCUUGCAUAGUAUUUUCAAA | 0.268 ± 0.037
5 | UCCACCUACAGCUUGCAUAGUAAAAAGUUA | 0.297 ± 0.026
6 | UCCUGCUACUGCUUGCAUACUAUUUAGUUA | 0.348 ± 0.02
7 | UCCUGCUACUCCUUGCAUAGUAUUUUCAAA | 0.115 ± 0.026
8 | UGGACCUACAGCUUGCAUAGUAUUUUCAUA | 0.185 ± 0.029
9 | UCCACCUACAGCUUGCAUACAUUUUAGUUA | 0.00856 ± 0.005
10 | AGGACCUACAGCUUGCAUAGUUAAUAGAAA | 0.189 ± 0.051
11 | UCGACCUACAGCUUGCAUACUAUUUUCAAA | 0.138 ± 0.028
12 | UCCUGCUACAGCUUGCAAUGUAUUUACAAA | 0.0711 ± 0.015
13 | UCGACCUACAGCUUGGCAUAGUAUUUAGUUA | 1.24 ± 0.2

Same assay, conditions: guide: L1MC piRNA 5'p-UAACUAAAUACUAUGCAAGCUGUAGGUCCU; auxiliary factor: none (no GTSF1)

Row | Sequence | pre-steady-state target cleavage rate
14 | UCCUGGAUGUCGAACGUAAGUAUUUACAUA | < 0.0001
15 | UCCUGGAUCAGGUUGCAUAGAAUUUAGUUA | 0.00868 ± 0.0035
16 | UCGACCUUCAGCUUGCAUAGUAUUUACAAA | 0.00444 ± 0.0026
17 | UGGACCUUGUGCUUGCAUAGUAUUUAGUUA | 0.0399 ± 0.0093
18 | UCCUGCUAGAGCUUGCAUAGAAUUUAGUUA | 0.0179 ± 0.0056
19 | UCCUGGUACUGCUUGCAUAGUAAUUAGUUA | 0.0127 ± 0.0034
20 | UCGACCUGACAGCUUGCAUAGUAUUUAGUUA | 0.0632 ± 0.011
21 | UCCUGCUACAGCUAGCAUAGUAUUAAGUUA | 0.00433 ± 0.0021
22 | UCCUGGAACAGCUUGCAUAGUGAUUUAGUUA | 0.0077 ± 0.003
23 | UCCUGCUUCAGCUUGCAUAGUAAUUAGUUA | 0.0173 ± 0.0042
24 | AGGACCUACUCCUUGCAUAGUAUUUUCAAA | 0.00279 ± 0.0022
25 | UCCUGCUACUGCUUGCAUACUAUUUAGUUA | 0.0269 ± 0.0055
26 | UGGACCUACAGCUUGCAUAGUAUUUUCAUA | 0.00833 ± 0.0025
27 | AGGAGGUACAGCUUGCAUAGUAUUUAGUUA | 0.0721 ± 0.011
28 | UCCUGGAUGUCGAACGUUAGUAUUUAUUA | < 0.0001
29 | UCGACCUACAGCUUGGCAUAGUAUUUAGUUA | 0.0236 ± 0.0066
